# Out of some 52,000 compounds screened, about 1,700 (3.3%) were called active. No stated cut-off is given here; in the data, active means survival mostly below about 52% (no sharp cut-off); inactive means mostly above about 56%. Some of the results follow.
# Test system: Wild type
# Assay: growth inhibition of S. aureus wild type versus tarO mutant, primary screen, teichoic acid synthesis inhibitors, RN4220, OD600 (AID 463173)
# Settings: S. aureus RN4220 wild type/DeltatarO growth, OD600, 18 h, stronger effect = lower value, screened at 18.75 µg/mL (by protocol)
row,SMILES,survival
1,Cc1ccc2c(c1)N(C(=O)Nc1ccc(Br)cc1F)CCO2,inactive: 81%
2,Cc1ccn2c(=O)cc(COc3ccc(NC(=O)C(C)(C)C)cc3)nc2c1,inactive: 83%
3,CC(C)Oc1ccc(CNC(=O)CN2C(=O)c3cccnc3Oc3ccc(Cl)cc32)cc1,inactive: 126%
4,O=C1CSC(=O)N1CNc1cc(Cl)ccc1Cl,inactive: 116%
5,CCS(=O)(=O)N1CCc2cc(C(=O)NC(C)c3ccccc3)ccc21 (stereo not drawn),inactive: 90%
6,O=c1c2sc3ccccc3c2n(Cc2cccc(C(F)(F)F)c2)c(=O)n1-c1ccccc1,inactive: 60%
7,CCCCCn1c(=N)c(S(=O)(=O)c2ccc(C)cc2)cc2c(=O)n3cc(C)ccc3nc21,inactive: 75%
8,Cn1c(COc2ccccc2C(C)(C)C)nc2ccccc21,active: -17%
9,COc1ccc(S(=O)(=O)c2cc3cc(C(C)(C)C)cc(O)c3oc2=O)cc1,active: 10%
10,COC(=O)c1ccc(NS(=O)(=O)c2ccc3c(c2)n(C)c(=O)c(=O)n3C)cc1,inactive: 90%
11,Cn1c2c(c(=O)n(C)c1=O)C(c1ccccc1C(F)(F)F)CC(=O)N2 (stereo not drawn),inactive: 77%
12,CCOC(=O)c1ccc(CN(Cc2ccc(F)cc2)S(=O)(=O)c2ccc(F)c(C(=O)Nc3ccccc3C(F)(F)F)c2)cc1,inactive: 89%
13,CC(C)(CC(=O)NCc1ccc(Cl)cc1Cl)CC1=NS(=O)(=O)c2ccccc2N1,inactive: 83%
14,Cc1ccc(C(=O)N2CCN(c3cccc(Cl)c3)CC2)cc1-n1c(C)nc2cccnc21,inactive: 84%
15,CCNC(=O)CC1C(=O)N(c2ccc(F)cc2)C(=O)N1Cc1ccc(OC)c(OC)c1 (stereo not drawn),inactive: 90%
16,COc1cc(Cl)c(C)cc1NC(=O)C1CCCN(c2ncnc3onc(-c4ccc(F)cc4)c23)C1 (stereo not drawn),inactive: 71%
17,O=C(c1ccc2c(c1)N(Cc1cccc(Cl)c1)C(=O)c1ccccc1S2(=O)=O)N1CCc2ccccc21,active: -3%
18,CCc1ccccc1N(CC)C(=O)C(=O)Nc1ccc2nc3n(c(=O)c2c1)CCCCC3,inactive: 71%
19,CCOC(=O)c1cccc(NC(=O)CCn2nc(C)c3c(C)n(-c4ccccc4)nc3c2=O)c1,inactive: 73%
20,COCCCNC(=O)C1CCCN(S(=O)(=O)c2ccc3c(c2)oc(=O)n3C)C1 (stereo not drawn),inactive: 90%

row,SMILES,survival
1,Cc1cc2c(cc1S(=O)(=O)N(C)CC(=O)Nc1cccc(C#N)c1)OCC(=O)N2,active: -4%
2,CC1=Nc2cc(C(=O)NC3CCCC3)ccc2Sc2ccc(Br)cc21,inactive: 71%
3,Nc1sccc1C(=O)c1ccccc1,inactive: 114%
4,CN(C)CCCNc1nc(-c2ccc(Cl)cc2)cs1,inactive: 107%
5,COc1ccccc1CNC(=O)c1ccc(CN2CC(=O)N3CCCCC3C2=O)cc1 (stereo not drawn),inactive: 72%
6,CCN(CC)c1ccc(NC(=O)CN2CCN(CC(=O)Nc3ccccc3OC)CC2)cc1,inactive: 136%
7,COc1ccccc1C(=O)NCC1(N2CCN(C)CC2)CCCCC1,inactive: 86%
8,Cc1ccc(C)c(NC(=O)N2CCC(N3CCN(Cc4ccc(F)cc4)C(=O)C3=O)CC2)c1,inactive: 125%
9,Cc1ccccc1Nc1cc(C(=O)NC2CCCCC2)c2ccccc2n1,inactive: 133%
10,CCOCCCn1c(SCC(=O)NCCCOC)nc2c(sc3ccccc32)c1=O,inactive: 134%
11,Fc1ccc(Nc2ncnc3c2nc2n3CCCC2)cc1,inactive: 76%
12,CCOC(=O)N1CCc2c(sc3c2c(=O)n(-c2ccc(Cl)cc2)c(=O)n3Cc2cccc(C)c2)C1,inactive: 94%
13,Cn1c(=O)oc2cc(S(=O)(=O)N3CCCC(C(=O)N4CCN(c5ccccc5F)CC4)C3)ccc21 (stereo not drawn),inactive: 88%
14,CCOCCCNC(=O)c1c[nH]c2ccc(S(=O)(=O)Nc3cccc(Cl)c3C)cc2c1=O,inactive: 76%
15,Cc1ccc(CCNc2ncnc3onc(C)c23)cc1,inactive: 119%
16,Cc1ccc(C)c(NC(=O)C(Cc2ccccc2)N2Cc3ccccc3C2=O)c1 (stereo not drawn),inactive: 133%
17,O=C(NCCS(=O)(=O)N1CCN(c2ccc(F)cc2)CC1)c1cc(=O)c2ccccc2o1,inactive: 74%
18,CSc1cccc(Nc2cc(C(=O)NCCCN(Cc3ccccc3)C(C)C)c3ccccc3n2)c1,inactive: 75%
19,COc1ccccc1N1CCN(S(=O)(=O)c2cc3[nH]c(=O)c(=O)[nH]c3cc2C)CC1,inactive: 71%
20,O=C(c1ccccc1)N1CCN(c2ccc(F)cc2)CC1,inactive: 108%

row,SMILES,survival
1,CCOc1ccc(CNC(=O)CCC(=O)N2CCSc3ccccc32)cc1,inactive: 80%
2,CN(c1ccccc1)C(c1ccc(F)cc1)c1nnnn1CC1CCCO1 (stereo not drawn),inactive: 101%
3,Cc1ccc2occ(CC(=O)N(Cc3ccc(N(C)C)cc3)C3CCS(=O)(=O)C3)c2c1 (stereo not drawn),inactive: 83%
4,CN1CCC(OC(=O)c2ccc(Cl)cc2Cl)CC1,inactive: 104%
5,CCc1cccc(NC(=O)CN2CCCN(Cc3cccc(C)c3)S2(=O)=O)c1,inactive: 70%
6,COc1ccc2nc(N3CCN(C(=O)C4CC4)CC3)sc2c1,inactive: 99%
7,COc1ccc(NC(=O)N2CCc3c([nH]c4ccc(OC)cc34)C2c2ccc(OC)cc2)cc1 (stereo not drawn),inactive: 93%
8,O=C(NCc1ccccc1)N(Cc1nc2ccccc2c(=O)[nH]1)C1CCCC1,inactive: 107%
9,COC(=O)c1cc2oc3ccccc3c2n1Cc1c(F)cccc1Cl,inactive: 112%
10,COc1cc(OC)c2c(C)cc(=O)oc2c1,inactive: 109%
11,CCN(CC)C(=O)C1CCCN(c2ncnc3onc(C)c23)C1 (stereo not drawn),inactive: 73%
12,CN(N)c1cc(=O)n(C)c(=O)[nH]1,inactive: 104%
13,CCOc1ccc2nc(NCCNC(=O)c3cc(OC)c(OC)c(OC)c3)c(C#N)cc2c1,inactive: 103%
14,COc1ccc(N2CCN(C(=O)c3ccc4nc(N5CCC(C)CC5)sc4c3)CC2)cc1,inactive: 86%
15,Cc1ccc(Cl)cc1N(C)C(=O)c1cnc(N2CCOCC2)c2ccccc12,inactive: 68%
16,COc1cccc(-c2nc3c(C#N)c[nH]n3c2NC2CCCCC2)c1OC,inactive: 78%
17,COc1ccc(Br)cc1Cc1nc(C)cc(Cl)n1,inactive: 108%
18,CC(NC(=O)c1sc2ncccc2c1-n1cccc1)c1ccccc1 (stereo not drawn),inactive: 69%

# Reference: PubChem BioAssay AID463173 (ICCB-Longwood Screening Facility, Harvard Medical School, 2010)
